Results published in PubChem BioAssay AID493208 (National Center for Advancing Translational Sciences (NCATS), 2011).
The whole screen tested about 44,000 compounds, of which about 340 (0.77%) were called active. Roughly 5% stayed inconclusive and do not appear here. Calls follow the shape of the dose curve; as a rule, active = well fitted inhibition curve with a large enough effect; inconclusive = small, poorly fitted or top-dose-only effect; inactive = flat fitted curve, though single readings scatter. The list shows a part of the results.

experiment: Acumen qHTS Assay for Inhibitors of the mTORC1 Signaling Pathway in MEF (Tsc2-/-, p53-/-) Cells: Sytravon; settings: phospho-rpS6 immunofluorescence/PI, 24 h; series mostly up to 38.3 µM; activity change, negative = inhibition: at the top concentration;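 also: plate controls were DMSO for no effect and rapamycin for full effect; nearly all actives have a fitted effect of over 50% in size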
Summary of the method: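 Read-out: phospho-S6 Alexa-488 intensity over PI intensity per well, scored as % active cells using thresholds from rapamycin (7.5 nM) and DMSO controls. Tsc2-/-, p53-/- MEFs exposed to compound for 24 h; PI cell count recorded as viability.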

Row | SMILES | activity change, negative = inhibition
1 | Cc1[nH]c2ccccc2c1C1(O)C(=O)Nc2ccc(Cl)cc21 (stereo not drawn) | inactive: -8.33%
2 | COc1cc(CNCCCSc2nnnn2C)cc(Br)c1OC | inactive: 0.926%
3 | Cn1c(=O)n(C)c2cc(NS(=O)(=O)c3ccc(Cl)cc3)c(NCc3ccccc3)cc21 | inactive: -1.88%
4 | CCc1ccccc1-n1nnc(-c2nc(-c3ccccc3F)no2)c1C | inactive: 0.927%
5 | O=C(Nc1cccc(F)c1)C1CCN(c2nc3ccccc3nc2C(F)(F)F)CC1 | inactive: 6.46%
6 | Cc1ccc(-n2c3c(c(=O)[nH]c2=O)C(NC(=O)C(C)(C)C)(C(F)(F)F)C(=O)N3)cc1 (stereo not drawn) | inactive: -0.779%
7 | COc1ccc(OC)c(NC(=O)CCCOc2cc(=O)n(C)c3ccccc23)c1 | inactive: -5.53%
8 | COc1cccc(NC(=O)CSC2=Nc3ccccc3C3=NC(CCC(=O)NC4CCCCC4)C(=O)N23)c1 (stereo not drawn) | inactive: -4.25%
9 | COc1ccc(-c2c3c(=O)n(C)c(=O)n(C)c3c3n2-c2ccccc2NC3c2ccccc2OC)cc1 (stereo not drawn) | inactive: -6.79%
10 | COc1ccc(NC(=O)CSc2nc3ccccc3n2CC(=O)NCc2ccc(F)cc2)cc1 | inactive: -7.04%
11 | COC(=O)c1ccc(NC(=O)c2cc3cc(C)ccc3n2C)cc1 | inactive: 0.543%
12 | CCCCSCCCNC(=O)c1cn(CC)c2ccc(S(=O)(=O)N3CCOCC3)cc2c1=O | inactive: -0.204%
13 | CCOc1ccc(NC(=O)CSc2nnc3c(C)cc4ccccc4n23)cc1 | inactive: -7.67%
14 | COc1ccc(S(=O)(=O)N2CCC(C(=O)Nc3ccc(Oc4ccccc4)cc3)CC2)cc1OC | inactive: -20.9%
15 | COc1ccc(NC(=O)c2ccc(-c3nc(COc4ccccc4)c(C)o3)cc2)cc1 | inactive: 1.25%
16 | COC(=O)c1ccccc1NC(=O)Cn1nc(C)c2nn(-c3ccc(Cl)cc3)c(C)c2c1=O | inactive: 4.59%
17 | CCCn1c2ccccc2c2cnn(CC(=O)Nc3ccccc3OC)c(=O)c21 | inactive: -13.7%
18 | COc1cc(NC(=O)Nc2nnc(N3CCCCC3)s2)cc(OC)c1 | inactive: 0.723%
19 | Cc1nn(-c2ccccc2)c2c1N(CCCC(=O)NCc1ccc(OC(C)C)cc1)C(=O)CS2 | inactive: 0%
20 | CC1CCc2nc3ccc(S(=O)(=O)N4CCC(C(=O)NCc5ccccc5Cl)CC4)cc3c(C(=O)O)c2C1 (stereo not drawn) | inactive: -4.75%
21 | Cc1ccc2c(CC(=O)Nc3ccc(S(=O)(=O)N4CCC(C)CC4)cc3)coc2c1 | inactive: -2.59%
22 | O=c1c2[nH]c3ccccc3c2nc(SCc2ccccc2F)n1-c1ccc(F)cc1 | inactive: -1.21%
23 | CCc1ccccc1NC(=O)Cn1nc(-c2cc(C)ccc2C)c2c(c1=O)CCCC2 | inactive: 0.307%
24 | Cc1ccccc1OCC(=O)Nc1ccc(OCc2cc(=O)n3ccccc3n2)cc1 | inactive: -14.3%

Row | SMILES | activity change, negative = inhibition
25 | COc1ccc(Cl)cc1NC(=O)C1CCCN(S(=O)(=O)c2ccc3c(c2)CCCC(=O)N3)C1 (stereo not drawn) | inactive: 1.94%
26 | Cc1ccc(CNC(=O)c2ccc3oc(=O)n(Cc4ccccc4)c3c2)cc1 | inactive: 0%
27 | O=C(CSc1nc2c(c(=O)[nH]1)CN(Cc1ccc3c(c1)OCO3)CC2)Nc1cc(F)ccc1F | inactive: 0.75%
28 | CCCCOC(=O)c1ccc(NC(=O)C2(c3cccs3)CCOCC2)cc1 | inactive: -1.11%
29 | COc1ccc(-c2nnc(SCC(=O)Nc3cccc(C)c3)s2)cc1 | inactive: -0.982%
30 | CCOC(=O)c1c(NC(=O)CSc2cn(CCNC(=O)c3ccc(OC)cc3)c3ccccc23)sc2c1CCC2 | inactive: -12.4%
31 | COc1ccc(NC(=O)CSc2nc(-c3ccccc3)cc(-c3cc(OC)c(OC)c(OC)c3)c2C#N)c(OC)c1 | inactive: 7.61%
32 | Cc1nn(CC(=O)Nc2ccc(C(C)C)cc2)c(=O)c2c(C)n(-c3ccc(Cl)cc3)nc12 | inactive: 7.52%
33 | COc1ccc(NC(=O)CSc2nccn2C2CCCC2)cc1OC | inactive: -0.0379%
34 | COc1ccc(-c2cn3nc(N4CCCC(C(=O)Nc5ccccc5F)C4)sc3n2)cc1 (stereo not drawn) | inactive: -12%
35 | CCOc1ccccc1N(C)C(=O)c1sc2nc3n(c(=O)c2c1C)CCCC3 | inactive: 5.73%
36 | Cc1ccc(Cn2cc(S(=O)(=O)c3ccccc3)c(=O)c3cc(F)c(N4CCOCC4)cc32)cc1 | inactive: -4.89%
37 | COc1ccc(NC(=O)C(c2ccc(OC)cc2)N(C)C(=O)Cc2cccs2)cc1 (stereo not drawn) | inactive: -18.4%
38 | Cn1ccc2cc(S(=O)(=O)N3CCN(C(=O)Nc4cccc(F)c4)CC3)ccc21 | inactive: 0.554%
39 | COc1ccccc1N1CCN(S(=O)(=O)CCNC(=O)c2cc(=O)c3ccccc3o2)CC1 | inactive: -0.892%
40 | CC(C)(Oc1ccc(Cl)cc1)C(=O)Nc1ccc(-c2nc3ncccc3o2)cc1 | inactive: -15.1%
41 | COc1ccc(C(CNC(=O)COc2cc(C)c(Cl)c(C)c2)N2CCCCC2)cc1 (stereo not drawn) | inactive: -7.93%
42 | Cc1ccccc1C(=O)Nc1cccc(-c2nc3cccnc3s2)c1 | inactive: -5.99%
43 | COc1ccc(Cn2ccc3nc(C)c(C(=O)Nc4ccc(OC)c(OC)c4)cc3c2=O)cc1 | inactive: -2.53%
44 | O=C(CSc1nc(=O)n(Cc2ccncc2)c2c1CCC2)Nc1ccccc1 | inactive: 0.382%
45 | COc1cccc(N2CCN(C(=O)CCn3nc(C)c(S(=O)(=O)N4CCCC4)c3C)CC2)c1 | inactive: -8.19%
46 | COc1cccc(CNC(=O)CCc2c(C)c3cc4c(C)coc4cc3oc2=O)c1 | inactive: 3.71%
47 | CCCN(CCC)C(=O)c1c[nH]c2ccc(S(=O)(=O)N(C)c3ccc(Cl)cc3)cc2c1=O | inactive: 2.13%
48 | COc1cccc(CNC(=O)C2CCC(CNS(=O)(=O)c3cccs3)CC2)c1 (stereo not drawn) | inactive: -16.7%

Row | SMILES | activity change, negative = inhibition
49 | O=c1c(S(=O)(=O)c2ccccc2)cn(Cc2ccc(F)cc2)c2cc(N3CCCC3)c(F)cc12 | inactive: -6.05%
50 | Cc1ccc(OCc2cc(=O)n3c4c(sc3n2)CCCC4)c(C)c1 | inactive: -1.15%
51 | CCCC(=O)N(c1ccc2oc3c(c2c1)CCCC3)S(=O)(=O)c1ccc(CC)cc1 | inactive: -13.3%
52 | Cc1ccccc1NC(=O)c1ccc(NC(=O)N2CCSc3ncccc32)cc1 | inactive: -2.78%
53 | COc1ccc(OC)c(-n2c(=O)[nH]c3cc(C(=O)NCCc4ccc(OC)c(OC)c4)ccc3c2=O)c1 | inactive: -3.92%
54 | COc1cccc(NC(=O)c2sc(-n3nc(C)c(Cc4ccccc4Cl)c3C)nc2C)c1 | inactive: -19.3%
55 | CC1CCN(S(=O)(=O)c2ccc3c(c2)N(CC(=O)NCc2ccccc2Cl)C(=O)CO3)CC1 | inactive: -3.65%
56 | COc1ccc(NCc2nc3ccccc3n2CCOc2ccccc2C)cc1 | inactive: -13.8%
57 | Cc1ccc(N(C)C(=O)Cn2nc(Cc3ccncc3)c3ccccc3c2=O)cc1C | inactive: -3.98%
58 | Cc1ccc(CNS(=O)(=O)c2ccc(F)c(C(=O)Nc3ccc(C)c(F)c3)c2)cc1 | inactive: 12.9%
59 | COCCn1c(C)cc(O)c(C(c2ccccc2)N2CCN(c3ccc(F)cc3)CC2)c1=O (stereo not drawn) | inactive: -0.481%
60 | O=C(NCCS(=O)(=O)N1CCN(c2ccccc2F)CC1)c1cc(=O)c2ccccc2o1 | inactive: 2.11%
61 | O=C(Nc1ccc(F)cc1)c1ccc(-n2cnc3cccnc32)cc1 | inactive: 0.0709%
62 | O=C(NCCc1ccc(Cl)cc1)c1ccc(CS(=O)(=O)Cc2ccc(F)cc2)o1 | inactive: -10.3%
63 | COC(=O)c1c(SC)nc2ccccc2c1OCc1cccc(C)c1 | inactive: -1%
64 | CCC(CC)C(=O)Nc1cccc(-c2nc3cccnc3s2)c1 | inactive: -1.05%
65 | COc1cccc(COC(=O)c2nn(-c3ccccc3)nc2N)c1 | inactive: -0.636%
66 | COc1ccccc1CCNC(=O)c1cc2c(=O)n3cccc(C)c3nc2n1C | inactive: -4.64%
67 | CNC(=O)C1CCC(Cn2c(=O)c3sccc3n(Cc3ccccc3)c2=O)CC1 (stereo not drawn) | inactive: -9.77%
68 | Cc1csc2nc(COC(=O)c3ccccc3NC(=O)c3ccccc3Cl)cc(=O)n12 | inactive: 6.47%
69 | CCc1ccc(NC(=O)N2CC=C(c3c[nH]c4ccccc34)CC2)cc1 | inactive: -22.5%
70 | CCOc1ccc(-c2nc(Cn3c(=O)cc(-c4ccccc4)c4c(C)nn(C)c43)c(C)o2)cc1OC | inactive: 0.898%
71 | COc1cc(OC)c(NC(=O)C(C)n2c(=O)cc(-c3ccccc3)c3c(C)nn(C)c32)cc1Cl (stereo not drawn) | inactive: -13.8%
72 | Cc1ccc(CNC(=O)C2CCN(c3nn4cc(-c5ccc(F)cc5)nc4s3)CC2)cc1 | inactive: -2.52%

Row | SMILES | activity change, negative = inhibition
73 | CCOC(=O)c1[nH]c(C)c(CCC(=O)Nc2cc(Cl)ccc2C)c1C | inactive: -0.862%
74 | COc1ccc(C(=O)NCC(c2cccnc2)N2CCc3ccccc3C2)cc1 (stereo not drawn) | inactive: 2.47%
75 | CCN(CC)c1ccc(NC(=O)CCS(=O)(=O)c2cccc3nsnc23)c(C)c1 | inactive: -12.4%
76 | CCSC1=NC2(CCN(C(=O)NC3CCCCC3)CC2)N=C1c1ccc(C)cc1 | inactive: 1.54%
77 | Cc1cc(S(=O)(=O)Nc2cc3c(cc2C)n(C)c(=O)c(=O)n3C)ccc1F | inactive: -1.48%
78 | Cc1ccccc1NC(=O)CSc1ncc2c(n1)-c1ccccc1N(C)S2(=O)=O | inactive: -2.98%
79 | CCOc1ccccc1NC(=O)c1c(NC(=O)C(C)Oc2cccc(Cl)c2)sc2c1CCCCC2 (stereo not drawn) | inactive: 10.3%
80 | Cc1cc(C)c2c(n1)nn1c(C)c(CCC(=O)Nc3ccc(C)c(Cl)c3)c(C)nc21 | inactive: -5.17%
81 | Cc1cn2c(=O)cc(COC(=O)c3cccc(NC(=O)C(C)Oc4ccccc4)c3)nc2s1 (stereo not drawn) | inactive: 6.7%
82 | Cc1cccc(S(=O)(=O)c2cn(Cc3ccccc3)c3cc(N4CCC(C)CC4)c(F)cc3c2=O)c1 | inactive: 0.176%
83 | CCn1c(Oc2ccc(F)cc2F)nc2c1c(=O)n(C)c(=O)n2C | inactive: -10.9%
84 | CCOc1ccc(CC(=O)Nc2c(C(=O)c3ccc(Cl)cc3)oc3ccccc23)cc1OCC | inactive: 3.71%
85 | CC1=C(C(=O)Nc2ccc(Cl)cc2)C(c2cccs2)n2nc(SCc3cccc(Cl)c3)nc2N1 (stereo not drawn) | inactive: -2.3%
86 | CCc1cc2c(cc3c(=O)n(CC(=O)NCc4cccc(Cl)c4)nc(CC)n32)s1 | inactive: -3.7%
87 | COc1cccc(CNC(=O)C(=O)NCC(c2cccs2)S(=O)(=O)c2cccs2)c1 (stereo not drawn) | inactive: 0.0183%
88 | COc1ccc(-n2nc3cc(C)c(NC(=O)COc4cccc(C)c4)cc3n2)cc1 | inactive: 2.29%
89 | COc1ccc(-c2cc(C(F)(F)F)nc(NCc3ccccc3)n2)cc1OC | inactive: -1.13%
90 | COc1cccc(CN2c3ccccc3-c3nc(SCC(=O)Nc4cccc(C)c4)ncc3S2(=O)=O)c1 | inactive: 7.5%
91 | CCOc1ccc(NCc2cccn2-c2nnc(N3CCC(C(=O)NC(C)c4ccccc4)CC3)s2)cc1 (stereo not drawn) | inactive: -0.246%
92 | O=C1C(=O)N(C2CCN(C(=O)c3ccc(F)cc3)CC2)CCN1Cc1ccc(F)cc1 | inactive: 4.96%
93 | CC1CCc2c(sc3nnn(CC(=O)Nc4cccc(C(F)(F)F)c4)c(=O)c23)C1 (stereo not drawn) | inactive: -4.1%
